The target in the experiment is bovine lactoperoxidase LpoPOX, commercial, SEQ ID NO: 16 (Bos taurus, UniProt P80025).

Take `[I-].[K+]` [iodide]: where the note is “KI 0.03-4 mM, 0.1 mM H2O2, 100 μM thymol blue, phosphate pH 7.2, room temperature, sigmoidal fit”, the Vmax stood at 0.0025 µmol/min. The kcat (KI 0.03-4 mM, 0.1 mM H2O2, phosphate pH 7.2, room temperature) came to 16.5 s⁻¹. Moreover, the kcat/K0.5 (KI, 0.1 mM H2O2, pH 7.2) was 12500 M⁻¹ s⁻¹.

The term Vmax denotes the rate approached at saturating substrate. By kcat is commonly meant the maximal rate divided by the concentration of active sites.

The record behind these values is patent US20250332227A1, “PEROXIDASE BASED BIOCONTROL AGENTS” (ACIES BIO D.O.O., priority 2022, published 2025).
